# This is one part of the list.
# Molecular target: T1, MBP-FoxP1dN (Mus musculus, UniProt P58462 326-579)
# T1 sequence: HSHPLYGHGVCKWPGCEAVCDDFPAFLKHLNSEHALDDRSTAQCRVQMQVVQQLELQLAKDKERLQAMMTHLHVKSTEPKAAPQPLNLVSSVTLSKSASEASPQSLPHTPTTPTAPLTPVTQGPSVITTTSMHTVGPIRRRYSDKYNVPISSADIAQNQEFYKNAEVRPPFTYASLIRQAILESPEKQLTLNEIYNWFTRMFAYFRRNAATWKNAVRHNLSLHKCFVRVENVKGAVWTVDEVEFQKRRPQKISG
# Assay: PD-seq (MBP pull-down with sequencing); 20 mM Tris-HCl pH 7.5, 100 mM NaCl, 1.5 mM MgCl2, 0.4 uM protein, 0.1 uM dsDNA library, 30 min, room temperature, amylose pull-down; high values mean tight binding
# Details: protein: recombinant; tags: His6-MBP; chain copies: 2; dsDNA, one strand shown
# In short: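 A degenerate double-stranded DNA library, filled in with Klenow, was added at 0.1 µM to 0.4 µM His6-MBP-tagged mouse FoxP3 or FoxP1 fragment lacking the N-terminus, expressed in E. coli. Incubation lasted 30 min at room temperature in Tris pH 7.5 buffer with NaCl and MgCl2, after which complexes were collected on amylose resin, washed three times, digested with proteinase K to free the DNA, barcoded by PCR and sequenced by Illumina. Binding is the pooled-replicate reads-per-million enrichment of pull-down over input.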
row,Sequence,binding signal
1,GATGATTGTTCTCCCAGCTGATGAATTGAGTAGCTCGAGTAAACAAATTTTCCTAATCTTTCTGTTCAAGCGCCATCTAC,0.83 RPM ratio (pull-down/input)
2,GATGATTGTTCTCCCAGCTGATGAATTCGGTAGCTCGAGTAAACAAATTTTCCTAATCTTTCTGTTCAAGCGCCATCTAC,0.783 RPM ratio (pull-down/input)
3,GATGATTGTTCTCCCAGCTGATGAATTTCTAGCATCGAGTAAACAAATTTTCCTAATCTTTCTGTTCAAGCGCCATCTAC,1.06 RPM ratio (pull-down/input)
4,GATGATTGTTCTCCCAGCTGATGAATTTAAGCATTCGAGTAAACAAATTTTCCTAATCTTTCTGTTCAAGCGCCATCTAC,1.14 RPM ratio (pull-down/input)
5,GATGATTGTTCTCCCAGCTGATGAATTTGGAAGCTCGAGTAAACAAATTTTCCTAATCTTTCTGTTCAAGCGCCATCTAC,0.812 RPM ratio (pull-down/input)
6,GATGATTGTTCTCCCAGCTGATGAATTACTGTCGTCGAGTAAACAAATTTTCCTAATCTTTCTGTTCAAGCGCCATCTAC,1.07 RPM ratio (pull-down/input)
7,GATGATTGTTCTCCCAGCTGATGAATTCTAGTGATCGAGTAAACAAATTTTCCTAATCTTTCTGTTCAAGCGCCATCTAC,0.942 RPM ratio (pull-down/input)
8,GATGATTGTTCTCCCAGCTGATGAATTTTTGGTTTCGAGTAAACAAATTTTCCTAATCTTTCTGTTCAAGCGCCATCTAC,0.984 RPM ratio (pull-down/input)
9,GATGATTGTTCTCCCAGCTGATGAATTGGAAGTATCGAGTAAACAAATTTTCCTAATCTTTCTGTTCAAGCGCCATCTAC,0.972 RPM ratio (pull-down/input)
10,GATGATTGTTCTCCCAGCTGATGAATTCACAAATTCGAGTAAACAAATTTTCCTAATCTTTCTGTTCAAGCGCCATCTAC,1.01 RPM ratio (pull-down/input)
11,GATGATTGTTCTCCCAGCTGATGAATTGGCTCTTTCGAGTAAACAAATTTTCCTAATCTTTCTGTTCAAGCGCCATCTAC,0.951 RPM ratio (pull-down/input)
12,GATGATTGTTCTCCCAGCTGATGAATTTTGTTTATCGAGTAAACAAATTTTCCTAATCTTTCTGTTCAAGCGCCATCTAC,2.61 RPM ratio (pull-down/input)
13,GATGATTGTTCTCCCAGCTGATGAATTTATATACTCGAGTAAACAAATTTTCCTAATCTTTCTGTTCAAGCGCCATCTAC,1.16 RPM ratio (pull-down/input)
14,GATGATTGTTCTCCCAGCTGATGAATTGCGGAATTCGAGTAAACAAATTTTCCTAATCTTTCTGTTCAAGCGCCATCTAC,1.1 RPM ratio (pull-down/input)
15,GATGATTGTTCTCCCAGCTGATGAATTGCGCCGGTCGAGTAAACAAATTTTCCTAATCTTTCTGTTCAAGCGCCATCTAC,0.953 RPM ratio (pull-down/input)
16,GATGATTGTTCTCCCAGCTGATGAATTTGGCTGATCGAGTAAACAAATTTTCCTAATCTTTCTGTTCAAGCGCCATCTAC,0.876 RPM ratio (pull-down/input)
17,GATGATTGTTCTCCCAGCTGATGAATTAATACCATCGAGTAAACAAATTTTCCTAATCTTTCTGTTCAAGCGCCATCTAC,1.11 RPM ratio (pull-down/input)
18,GATGATTGTTCTCCCAGCTGATGAATTCGTACCATCGAGTAAACAAATTTTCCTAATCTTTCTGTTCAAGCGCCATCTAC,0.934 RPM ratio (pull-down/input)
19,GATGATTGTTCTCCCAGCTGATGAATTGCACCCTTCGAGTAAACAAATTTTCCTAATCTTTCTGTTCAAGCGCCATCTAC,1.16 RPM ratio (pull-down/input)
20,GATGATTGTTCTCCCAGCTGATGAATTCAATCCGTCGAGTAAACAAATTTTCCTAATCTTTCTGTTCAAGCGCCATCTAC,0.914 RPM ratio (pull-down/input)

row,Sequence,binding signal
1,GATGATTGTTCTCCCAGCTGATGAATTCCATCGTTCGAGTAAACAAATTTTCCTAATCTTTCTGTTCAAGCGCCATCTAC,0.79 RPM ratio (pull-down/input)
2,GATGATTGTTCTCCCAGCTGATGAATTCCGGGACTCGAGTAAACAAATTTTCCTAATCTTTCTGTTCAAGCGCCATCTAC,0.775 RPM ratio (pull-down/input)
3,GATGATTGTTCTCCCAGCTGATGAATTTCGGGACTCGAGTAAACAAATTTTCCTAATCTTTCTGTTCAAGCGCCATCTAC,0.769 RPM ratio (pull-down/input)
4,GATGATTGTTCTCCCAGCTGATGAATTGCGGTGATCGAGTAAACAAATTTTCCTAATCTTTCTGTTCAAGCGCCATCTAC,1.06 RPM ratio (pull-down/input)
5,GATGATTGTTCTCCCAGCTGATGAATTCGTTAAGTCGAGTAAACAAATTTTCCTAATCTTTCTGTTCAAGCGCCATCTAC,0.908 RPM ratio (pull-down/input)
6,GATGATTGTTCTCCCAGCTGATGAATTCTATGGGTCGAGTAAACAAATTTTCCTAATCTTTCTGTTCAAGCGCCATCTAC,0.857 RPM ratio (pull-down/input)
7,GATGATTGTTCTCCCAGCTGATGAATTGTAGTAGTCGAGTAAACAAATTTTCCTAATCTTTCTGTTCAAGCGCCATCTAC,1.08 RPM ratio (pull-down/input)
8,GATGATTGTTCTCCCAGCTGATGAATTGTGTTGGTCGAGTAAACAAATTTTCCTAATCTTTCTGTTCAAGCGCCATCTAC,1.92 RPM ratio (pull-down/input)
9,GATGATTGTTCTCCCAGCTGATGAATTGGTAGCGTCGAGTAAACAAATTTTCCTAATCTTTCTGTTCAAGCGCCATCTAC,0.907 RPM ratio (pull-down/input)
10,GATGATTGTTCTCCCAGCTGATGAATTAGCGTTTTCGAGTAAACAAATTTTCCTAATCTTTCTGTTCAAGCGCCATCTAC,1.13 RPM ratio (pull-down/input)
11,GATGATTGTTCTCCCAGCTGATGAATTGGGTATATCGAGTAAACAAATTTTCCTAATCTTTCTGTTCAAGCGCCATCTAC,0.951 RPM ratio (pull-down/input)
12,GATGATTGTTCTCCCAGCTGATGAATTTATCAGCTCGAGTAAACAAATTTTCCTAATCTTTCTGTTCAAGCGCCATCTAC,1.01 RPM ratio (pull-down/input)
13,GATGATTGTTCTCCCAGCTGATGAATTCGGCTCTTCGAGTAAACAAATTTTCCTAATCTTTCTGTTCAAGCGCCATCTAC,0.806 RPM ratio (pull-down/input)
14,GATGATTGTTCTCCCAGCTGATGAATTCATTAATTCGAGTAAACAAATTTTCCTAATCTTTCTGTTCAAGCGCCATCTAC,0.983 RPM ratio (pull-down/input)
15,GATGATTGTTCTCCCAGCTGATGAATTCGGTAAGTCGAGTAAACAAATTTTCCTAATCTTTCTGTTCAAGCGCCATCTAC,0.945 RPM ratio (pull-down/input)
16,GATGATTGTTCTCCCAGCTGATGAATTATGTATGTCGAGTAAACAAATTTTCCTAATCTTTCTGTTCAAGCGCCATCTAC,1.34 RPM ratio (pull-down/input)
17,GATGATTGTTCTCCCAGCTGATGAATTTAGATAGTCGAGTAAACAAATTTTCCTAATCTTTCTGTTCAAGCGCCATCTAC,1.01 RPM ratio (pull-down/input)
18,GATGATTGTTCTCCCAGCTGATGAATTCCTCTGATCGAGTAAACAAATTTTCCTAATCTTTCTGTTCAAGCGCCATCTAC,0.844 RPM ratio (pull-down/input)
19,GATGATTGTTCTCCCAGCTGATGAATTGACTCGATCGAGTAAACAAATTTTCCTAATCTTTCTGTTCAAGCGCCATCTAC,0.903 RPM ratio (pull-down/input)
20,GATGATTGTTCTCCCAGCTGATGAATTGATGGACTCGAGTAAACAAATTTTCCTAATCTTTCTGTTCAAGCGCCATCTAC,0.913 RPM ratio (pull-down/input)

# Source: article PMC12820563, “FoxP3 forms a head-to-head dimer in vivo and stabilizes its multimerization on adjacent microsatellites”
